Out of some 420,000 compounds screened, about 64,000 (15%) were called active. Inconclusive results, whose numbers are uncertain, are shown with a selection of clear calls. Calls follow the shape of the dose curve; as a rule, active = well fitted inhibition curve with a large enough effect; inconclusive = small, poorly fitted or top-dose-only effect; inactive = flat fitted curve, though single readings scatter. No potency is given beside an inconclusive call; the fits are too rough.
experiment: qHTS for Inhibitors of human tyrosyl-DNA phosphodiesterase 1 (TDP1): qHTS in cells in absence of CPT; details: DT40 Tdp1-/- hTDP1 cells, no CPT, ATP luminescence, 48 h; activity change, negative = growth inhibition: at 46.2 µM (top of the series) unless noted; also: nearly all actives have a fitted effect of over 55% in size
Summary of the method: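 Cells were dispensed at 400 per well, compounds added by pin tool, plates incubated ≥48 hr at 37 °C, then CellTiter-Glo added for 30 min at room temperature before luminescence reading. Line: DT40 Tdp1-/- complemented with hTDP1; camptothecin omitted.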
% is scaled to controls: 0 for no effect and ±100 for the full control effect; potency is read from the fitted curve at half-maximal effect; tags tell the direction and shape of the fitted curve.

Row | SMILES | activity change, negative = growth inhibition | Potency
1 | CCn1cc(C(=O)NCCC(=O)NC(C)C)c(=O)c2cc3c(cc21)OCO3 | inactive: 23.3% | 
2 | O=C(NCc1cccs1)C1CCN(S(=O)(=O)c2ccccc2F)CC1 | inactive: -0.388% | 
3 | Cc1ccc2nc3sc(C(=O)Nc4ccc(F)cc4)cc3cc2c1 |  | inconclusive [inhibitor, partial curve]
4 | CCc1cc(=O)oc2cc(C)cc(OCC(=O)NC3CCN(Cc4ccccc4)CC3)c12 |  | inconclusive [inhibitor, single point]
5 | Cc1ccc2cc(CN(Cc3ccco3)C(=O)c3ccco3)c3nnnn3c2c1 |  | inconclusive [inhibitor, full curve]
6 | CCn1c(SCC(=O)N(C)Cc2ccc(OC)c(F)c2)nc2cc(S(N)(=O)=O)ccc21 | inactive: 0.776% | 
7 | COc1ccccc1CNc1nc(-c2cccc(C#N)c2)nc2ccccc12 |  | inconclusive [inhibitor, single point]
8 | Cc1ccc(C(=O)n2c3ccccc3c3ccccc32)cc1 |  | active: 6.51 µM
9 | N#C/C(=C\C=C\c1ccccc1)c1nc(-c2ccc3c(c2)OCO3)cs1 | inactive: -21% | 
10 | COc1ccc(N2CCN(C(=S)Nc3ccc(S(N)(=O)=O)cc3)CC2)cc1 |  | inconclusive [inhibitor, single point]
11 | c1ccc2c(c1)[nH]c1c(N3CCSCC3)ncnc12 |  | active: 18.4 µM
12 | CN1CCN(C(c2cccc(C(F)(F)F)c2)c2nnnn2Cc2ccccc2)CC1 (stereo not drawn) | inconclusive: -35.2% [inhibitor] | 
13 | C/C=C/C=C/C(=O)N1CC2(CC(c3cccc(NC(=O)/C=C/C)c3)=NO2)C[C@@H]1C(N)=O (stereo partly drawn) | inactive: 0.748% | 
14 | C[C@@H]1CN([C@H](C)CO)C(=O)CCCn2nncc2CO[C@H]1CN(C)S(=O)(=O)c1cccc(F)c1 | inactive: -16.4% | 
15 | COc1ccc(N2CCN(C(=O)c3c(C)oc4ncn(CC(C)C)c(=O)c34)CC2)cc1 |  | inconclusive [inhibitor, single point]
16 | O=C(c1cccnc1)N1N=C(C2CC2)CC1(O)C(F)(F)F (stereo not drawn) | inconclusive: -32.5% [inhibitor] | 
17 | O=C(Nc1ccc(F)cc1)c1ccc2[nH]c(=O)c(=O)[nH]c2c1 |  | inconclusive [inhibitor, single point]
18 | Cn1c(SCC(=O)N2CCc3ccccc32)nnc1-c1ccc(S(=O)(=O)N2CCCC2)cc1 | inconclusive: -38.3% [inhibitor] | 
19 | Cc1ccccc1NC(=O)/C(C#N)=C/c1ccccc1C(F)(F)F |  | inconclusive [inhibitor, partial curve]
20 | CC(=O)C1=C(c2cccc([N+](=O)[O-])c2)N(C(C)=O)n2c(C)nnc2S1 |  | active: 1.84 µM
21 | CCOc1ccc(NCc2cccn2-c2nnc(N3CCC(C(=O)NCCc4ccc(OCC)c(OCC)c4)CC3)s2)cc1 |  | active: 8.2 µM
22 | Cc1noc(C)c1CSc1nnc(-c2ccccc2)n1N |  | inconclusive [inhibitor, single point]
23 | Cc1cccc(C(=O)NC(=S)NNC(=O)COc2ccc(Cl)cc2)c1 |  | inconclusive [inhibitor, single point]

Row | SMILES | activity change, negative = growth inhibition | Potency
24 | COc1ccccc1-c1nnc2n1N=C(c1ccc(O)c(O)c1)CS2 |  | active: 6.51 µM
25 | Cc1cc(S(=O)(=O)N2CCOCC2)ccc1OCC(=O)NCc1ccco1 | inconclusive: -31.7% [inhibitor] | 
26 | Cc1nc(-c2ccc(S(=O)(=O)N3CCN(c4ccccc4)CC3)cc2)co1 |  | inconclusive [inhibitor, single point]
27 | COc1ccc(S(=O)(=O)N2CCC3CC2c2c(-c4ccc(C(F)(F)F)cc4)cccc23)cc1 (stereo not drawn) |  | active: 5.17 µM
28 | CC1CN(C(=O)Nc2ccc(C(=O)NCCc3ccc(Cl)cc3)cc2)c2ccccc2S1 (stereo not drawn) |  | inconclusive [inhibitor, single point]
29 | COCCn1c(C)cc(O)c(C(c2ccc(OC)cc2)N2CCCCC2)c1=O (stereo not drawn) | inactive: -5.95% | 
30 | COc1cc2c(cc1NS(=O)(=O)N1CCCCC1)oc1ccccc12 |  | inconclusive [inhibitor, single point]
31 | CC(C)c1ccc(N=C2NN=C(c3cccs3)CS2)cc1 |  | inconclusive [inhibitor, single point]
32 | N#CCC(=O)NNC(=S)NC(=O)C(c1ccccc1)c1ccccc1 | inactive: -11.1% | 
33 | COc1ccc(S(=O)(=O)Nc2c(C(=O)O)[nH]c3ccc(OC)cc23)c(OC)c1 | inactive: -17.1% | 
34 | O=C(CSC1=NS(=O)(=O)c2ccccc2N1)Nc1ccccc1F | inactive: 0.941% | 
35 | COc1ccc(CN(C)Cc2nc3cc(OC)c(OC)cc3c(=O)[nH]2)c(OC)c1 |  | inconclusive [inhibitor, single point]
36 | O=C(CN1CCN(Cc2ccccc2Cl)CC1)N=Nc1c(O)[nH]c2ccccc12 |  | inconclusive [inhibitor, single point]
37 | CC(=O)N1C(=O)/C(=C2\SC(=S)N(c3c(C)n(C)n(-c4ccccc4)c3=O)C2=O)c2ccccc21 |  | inconclusive [inhibitor, partial curve]
38 | FC(F)(F)c1cccc(OCCN2CCN(Cc3ccccc3)CC2)c1 |  | inconclusive [inhibitor, single point]
39 | O=S(=O)(c1ccccc1Cl)N1CCCC1c1nc(-c2ccccc2Cl)no1 (stereo not drawn) |  | inconclusive [inhibitor, single point]
40 | CC(c1ccco1)N(C(=O)c1cccc(Br)c1)c1ccccn1 (stereo not drawn) |  | inconclusive [inhibitor, partial curve]
41 | CSc1nnc(-c2cc(-c3ccc(C)cc3)nc3ccccc23)o1 |  | inconclusive [inhibitor, single point]
42 | COc1ccc(CN2CCC2(C)C(=O)Nc2cnc3ccccc3c2)c2ccccc12 (stereo not drawn) |  | inconclusive [inhibitor, single point]
43 | COc1ccccc1-c1noc(CCC(=O)Nc2cccc(C(F)(F)F)c2)n1 |  | inconclusive [inhibitor, single point]
44 | COc1ccc(C(C)C)cc1-c1cc(C(=O)NCc2cccc(C(F)(F)F)c2)[nH]n1 |  | inconclusive [inhibitor, partial curve]
45 | CCCCN1CNC(=S)N(CCc2ccc(OCC)c(OCC)c2)C1 |  | inconclusive [inhibitor, single point]
46 | CC(=O)Oc1cccc2c1C(=O)c1c(OC(C)=O)cc(C(=O)O)cc1C2=O |  | inconclusive [inhibitor, single point]

Row | SMILES | activity change, negative = growth inhibition | Potency
47 | Cc1ccccc1NC(=O)CSCn1nnc2c(=O)[nH]c(Cc3ccc(F)cc3)nc21 | inactive: -22.5% | 
48 | C=CCN(c1ccccc1)S(=O)(=O)c1cccc(C(=O)Nc2nc3ccccc3[nH]2)c1 |  | active: 13 µM
49 | O=C(CCc1ccc(S(=O)(=O)NCCc2ccccc2)cc1)NCc1ccco1 |  | inconclusive [inhibitor, partial curve, poor fit]
50 | COc1ccc(C2=Nc3ccc(C)cc3C(c3ccccc3)N2CC(=O)NN)cc1 (stereo not drawn) | inconclusive: -30.8% [inhibitor] | 
51 | CN(C)c1ccc(NC(=O)CN2CCN(c3ccc(F)cc3)CC2)cc1 | inactive: 1.21% | 
52 | CCOC(=O)c1c(CS(=O)(=O)c2ccccc2)n(C)c2cc(Br)c(O)c(CN(C)C)c12 |  | active: 13 µM
53 | COc1ccc(CC(=O)Nc2ccc(-c3noc(-c4cc(OC)c(OC)c(OC)c4)n3)cc2)cc1 |  | inconclusive [inhibitor, single point]
54 | Cc1ccc(-c2nc(CSCC(=O)NCc3cccnc3)c(C)o2)cc1 |  | inconclusive [inhibitor, partial curve]
55 | COCCNC(=O)[C@H](C)[C@H]1C[C@]1(C)[C@H](NC(=O)OCc1ccccc1)c1ccccc1 |  | inconclusive [inhibitor, single point]
56 | Cn1c(C(=O)NCCc2ccccc2)cc2cc(S(=O)(=O)N3CCCCC3)ccc21 |  | inconclusive [inhibitor, single point]
57 | COc1ccc(F)cc1-c1cc(NC(C)=O)c2ncc(-c3cc(OC)c(OC)c(OC)c3)n2c1 |  | active: 2.91 µM
58 | COc1ccc(CN2C(=O)c3ccccc3C2=O)cc1 | inactive: -1.36% | 
59 | COCCCNC(=O)c1ccccc1C(F)(F)F |  | inconclusive [inhibitor, single point]
60 | Cc1cc(C)c(C(O)c2ncc(-c3ccccc3F)[nH]2)c(C)c1 (stereo not drawn) |  | inconclusive [inhibitor, single point]
61 | O=C(CC1OC(=O)c2ccccc21)Nc1cc(Cl)ccc1N1CCOCC1 (stereo not drawn) |  | inconclusive [inhibitor, single point]
62 | CCc1ccc(NC(=O)C(=O)NCCN2CCN(S(=O)(=O)c3ccccc3)CC2)cc1 | inactive: -22.6% | 
63 | COc1ccc(OCC(O)CNCc2ccco2)cc1 (stereo not drawn) | inactive: 0.808% | 
64 | CCOc1ccc(/C(O)=C2/C(=O)C(=O)N(c3ccccn3)C2c2ccc(Cl)cc2)c(C)c1 (stereo not drawn) |  | inconclusive [inhibitor, single point]
65 | CCCN1Cc2cccc(C(=O)Nc3ccccc3F)c2C1=O |  | inconclusive [inhibitor, single point]
66 | CCCC(=O)Nc1ccc2nc(SCCOc3ccccc3)sc2c1 |  | inconclusive [inhibitor, full curve, poor fit]
67 | CCN(C(=O)CN1C(=O)/C(=C/c2ccccc2)SC1=S)C1CCS(=O)(=O)C1 (stereo not drawn) |  | inconclusive [inhibitor, single point]
68 | O=C1C=C(c2ccc(CO)cc2)C[C@@H](c2ccc3c(c2)OCO3)C1 |  | inconclusive [inhibitor, partial curve]
